Experimental findings from PMC6212790 are described below.

This is one part of the list. At the low end of the ranking the order means little.

This assay concerns the target T1, GST-Rok-C97-191 (UniProt O34857).
T1 sequence: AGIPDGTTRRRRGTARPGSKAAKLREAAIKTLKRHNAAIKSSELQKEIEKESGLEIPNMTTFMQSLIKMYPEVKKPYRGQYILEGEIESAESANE
Kind of assay: protein binding microarray.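 Note: rank score from −0.5 (least bound) to 0.5 (best bound).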 To be noted: Rok is a gene silencer of Bacillus subtilis; high values mean tight binding; most listed sequences are background and not binding sites; double strand, one strand shown.
Sequence AACTTTGA registered a binding signal of -0.09 E-score.
Sequence ACTGTAAC gave a binding signal of 0.226 E-score.
AAGTTTAT yielded a binding signal of 0.0846 E-score.
Sequence AAGACTCG returned a binding signal of -0.148 E-score.
For AGGCAGCA, the binding signal is -0.135 E-score.
AAGTGTCG: the binding signal worked out at 0.0859 E-score.
As to CGACGTAG, the binding signal is -0.0973 E-score.
Turning to TACAGCTA, the binding signal turned out to be 0.191 E-score.
Consider AGCTATGG, for which the binding signal was 0.141 E-score.
In turn, AACTGTCA came in with a binding signal of 0.000932 E-score.
As for CCGTCGTC, the binding signal was -0.112 E-score.
In the case of AACTTTTA it was 0.194 E-score; in that of ATTCTGCG, 0.0793 E-score; in that of CAGAATGG, -0.212 E-score.
The sequence CATAAGTA showed a binding signal of 0.185 E-score.
Sequence TCCCTGCA had a binding signal of -0.211 E-score.
AATTGACG returned a binding signal of 0.154 E-score.
In the case of ATATGTGG it was 0.033 E-score.
For the sequence CCGTTCTA, the binding signal came to 0.108 E-score.
In turn, GAGCAAGC displayed a binding signal of 0.0506 E-score.
Turning to GAAGTGCC, the binding signal was -0.0999 E-score.
For AGGTTAAT the value was 0.0701 E-score.
With ACGATTGA, the binding signal came out at 0.0499 E-score.
Take CCCCATCC: the binding signal is -0.296 E-score.
Turning to AGAATCCG, the binding signal came to 0.193 E-score.
For AAGCAGCA the value was -0.209 E-score; for CCTAGATC, 0.0939 E-score.
Take CCACGTGA: the binding signal was -0.129 E-score.
The sequence GTACGACA gave a binding signal of -0.00434 E-score.
CGGCCAAC yielded a binding signal of -0.237 E-score.
With GGCATCCA, the binding signal was -0.259 E-score.
Consider CGTCAATC, for which the binding signal is -0.16 E-score.
Sequence GAGTGGGA had a binding signal of -0.19 E-score.
In the case of CCGACACG it was -0.267 E-score; in that of GTGGACAA, -0.079 E-score; in that of CCCTGAAG, -0.137 E-score.
With GCGTGTAC, the binding signal was -0.0526 E-score.
With AAGGCGGG, the binding signal was -0.146 E-score.
Take CAATCTTC: the binding signal amounted to 0.177 E-score.
AACCCCAT displayed a binding signal of -0.221 E-score.
As to CGTGGTAA, the binding signal came out at 0.0314 E-score.
ATATCATA showed a binding signal of 0.207 E-score.
As for GGCCAGAC, the binding signal was -0.163 E-score.
For the sequence ACGCGGGC, the binding signal is -0.223 E-score.
In the case of CGTTGCAA it was -0.0248 E-score.
For CAGGAGCA the value was -0.151 E-score; for ACCCGTTC, 0.124 E-score; for ATATATCA, 0.396 E-score.
CTCGTTTA yielded a binding signal of -0.126 E-score.
In turn, ACACGTGT displayed a binding signal of 0.00499 E-score.
For GGCACACC the value was -0.207 E-score; for AAATGGCG, -0.123 E-score.
In turn, CTCATACC displayed a binding signal of 0.0992 E-score.
With GATCAAAA, the binding signal amounted to 0.0313 E-score.
In the case of AGCGGGGC, the binding signal was -0.248 E-score.
In the case of AACAAGAC it was -0.0301 E-score; in that of AGTAGCAG, 0.142 E-score.
Regarding CAATAGAA, the binding signal was determined as 0.223 E-score.
Sequence GAGCTCTA had a binding signal of -0.105 E-score.
In the case of AGCCTTAC it was 0.0129 E-score; in that of ACTTCTAT, 0.291 E-score.
GCTTGTTA displayed a binding signal of -0.0434 E-score.
Take CTCGAAGA: the binding signal amounted to 0.0143 E-score.
As for ACGCCCCG, the binding signal was -0.309 E-score.
For ACGCTCAT the value was -0.212 E-score; for CCCTCAAA, -0.261 E-score; for CGCCCCAG, -0.292 E-score.
In the case of CCATTCTC it was -0.103 E-score; in that of GCTTCGAC, -0.0316 E-score; in that of GCTGGTCA, -0.291 E-score.
On to AAAATCTC, for which the binding signal came out at 0.242 E-score.
CACGCCCA returned a binding signal of -0.205 E-score.
With CGATGATC, the binding signal came out at 0.0105 E-score.
In the case of GCCATCCA it was -0.088 E-score; in that of CCGAGGTC, -0.275 E-score; in that of CCCGCACA, -0.273 E-score.
CTGCCTTA gave a binding signal of -0.0453 E-score.
For CCTGTACC the value was -0.068 E-score.
AGTATCGC: the binding signal was determined as 0.0182 E-score.
Regarding CTCTCCAA, the binding signal was -0.122 E-score.
AACATGAC: the binding signal amounted to 0.0675 E-score.
For GATCGAAA the value was -0.0146 E-score.
In the case of ATGAACGC, the binding signal was -0.0848 E-score.
As to ACACGGAG, the binding signal is -0.204 E-score.
AATGAGTC: the binding signal is -0.194 E-score.
AAGCAAGA yielded a binding signal of -0.139 E-score.
For the sequence AACCGCGA, the binding signal was -0.00712 E-score.
Take AGCTCCTG: the binding signal is -0.194 E-score.
For CTTACGAA the value was 0.0521 E-score.
In the case of ATTCTTAC it was 0.129 E-score; in that of GGGGACGA, -0.0863 E-score; in that of CATTCGTA, 0.0827 E-score.
For CACAGATG, the binding signal was determined as 0.0345 E-score.
GTGCGGCA: the binding signal is -0.192 E-score.
Take GGTAGGAC: the binding signal was 0.19 E-score.
In turn, ATATCAAA had a binding signal of 0.127 E-score.
For the sequence CGCAACCC, the binding signal is -0.158 E-score.
TCTCACCA: the binding signal is -0.161 E-score.
Consider AATAATCA, for which the binding signal turned out to be 0.131 E-score.
As for CCAGGGGA, the binding signal is -0.12 E-score.
Take CGACCGCG: the binding signal is -0.167 E-score.
AACGTCGG displayed a binding signal of -0.151 E-score.
On to GAACAGAC, for which the binding signal was -0.0366 E-score.
CAACTGGA displayed a binding signal of -0.0795 E-score.
The sequence AAACTCCA came in with a binding signal of -0.0566 E-score.
Sequence AACAGTTG came in with a binding signal of 0.0682 E-score.
As to ATGTCAGA, the binding signal is -0.0137 E-score.
ACAAAACA had a binding signal of 0.075 E-score.
As to TAGCAAAA, the binding signal stood at 0.132 E-score.
Sequence CTAGTATA showed a binding signal of 0.37 E-score.
In the case of AACTGAGG it was 0.00289 E-score; in that of CAAGACCG, -0.262 E-score; in that of ATAAGCAG, 0.12 E-score.
The sequence GCGAGCGA gave a binding signal of -0.118 E-score.
With TCGTAAGA, the binding signal amounted to 0.0452 E-score.
Consider AGAGATTC, for which the binding signal is -0.123 E-score.
AATGTCAG: the binding signal is -0.105 E-score.
For TTAGGAAA, the binding signal is -0.0685 E-score.
Sequence ATGGCCAC yielded a binding signal of -0.16 E-score.
Sequence AAACGTTT showed a binding signal of 0.00953 E-score.
On to GCTCATCC, for which the binding signal is -0.105 E-score.
In the case of GATCTCAA it was -0.121 E-score.
For ATTCTAAG the value was 0.192 E-score.
Turning to AACAATAG, the binding signal turned out to be 0.213 E-score.
For AACTTCAG, the binding signal amounted to 0.15 E-score.
Sequence AATCGTTC showed a binding signal of 0.0218 E-score.
Take CATTCCTC: the binding signal worked out at 0.0829 E-score.
Sequence ACGGTGCC yielded a binding signal of -0.187 E-score.
In the case of AGTACTAA it was 0.277 E-score; in that of CCTCCGCG, -0.198 E-score; in that of CCAAGGCC, -0.269 E-score.
The sequence AACTCATT returned a binding signal of 0.0936 E-score.
For the sequence GTCACCTA, the binding signal was -0.0923 E-score.
As to ATCCTGCA, the binding signal was found to be 0.0671 E-score.
Take CAGACGCC: the binding signal was -0.305 E-score.
For CCCTCCGG the value was -0.308 E-score; for CCTCTTCA, -0.193 E-score.
CTAGATGA: the binding signal turned out to be 0.0691 E-score.
Sequence CACCGCCC returned a binding signal of -0.307 E-score.
For CCTTGCCC, the binding signal was -0.215 E-score.
In the case of CAATCTAC it was 0.395 E-score; in that of ACGGGTCC, -0.206 E-score; in that of AGTAACTG, 0.124 E-score.
For AGGGATTC the value was 0.0183 E-score; for TCCAATAA, -0.0574 E-score; for ACTAGTTC, 0.318 E-score.
CTATATGA yielded a binding signal of 0.0756 E-score.
Sequence AGCGGTCA had a binding signal of -0.175 E-score.
In turn, AACGGGGG had a binding signal of -0.198 E-score.
On to GTCCGCAA, for which the binding signal is -0.0227 E-score.
For AAAAACGT the value was -0.0641 E-score.
In the case of ATTAGAAG it was 0.23 E-score; in that of AATCCGAT, 0.0337 E-score; in that of ATTGACCG, -0.00184 E-score.
As for TGCCTCCA, the binding signal is -0.16 E-score.
Sequence TAAGTTCA showed a binding signal of 0.121 E-score.
For CAAGGCGC the value was -0.213 E-score.
For the sequence GGTAGACC, the binding signal is -0.0686 E-score.
Take GCTCAGAC: the binding signal was -0.241 E-score.
Sequence GGGTAACC displayed a binding signal of -0.147 E-score.
The sequence GGTCAAGA gave a binding signal of -0.181 E-score.
On to CACCCCAC, for which the binding signal is -0.11 E-score.
In turn, GGCTGGTA showed a binding signal of 0.169 E-score.
CAATCCGC gave a binding signal of -0.12 E-score.
AACGGTGA: the binding signal is -0.0685 E-score.
In the case of ATCCTGAG it was 0.0291 E-score; in that of CCAGAATC, -0.115 E-score; in that of ATCTGCGG, -0.176 E-score.
In the case of CCTTTCCG, the binding signal is -0.19 E-score.
CAGGGTCC yielded a binding signal of -0.321 E-score.
In turn, CTAGGCAC showed a binding signal of -0.149 E-score.
AAAGTCAC came in with a binding signal of -0.105 E-score.
